About 200 (0.44%) of roughly 45,000 compounds were called active. Inconclusive results (about 7%) are left out. Calls come from the whole dose curve; as a rule, active = well fitted activation curve with a large enough effect; inconclusive = small, poorly fitted or top-dose-only effect; inactive = no such curve, though single readings can be large or run the other way. Some of the results follow.

The test can be described thus: qHTS of TDP-43 Inhibitors: NCGC Sytravon Library Screen. Note: 0% is about no effect; nearly all actives have a fitted effect of over 55% in size. The settings on record: yeast TDP-43 toxicity rescue, BacTiter-Glo growth, 24 h; series mostly up to 46.1 µM; growth rescue (activation): at the top concentration. An outline of the steps: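 TDP-43-expressing yeast, pregrown in raffinose, seeded at OD600 0.02 in galactose medium with compound for 24 hr at 30 deg C. Growth read by BacTiter-Glo luminescence, so rescue of toxicity appears as activation.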
Background: qHTS replaces the single test concentration by a dilution series.
For `O=C(COc1ccc(S(=O)(=O)N2CCOCC2)cc1)N1CCN(c2ccccc2)CC1`, the “growth rescue (activation)” value is inactive: 13.2%. Turning to `Cc1cc(Nc2ccc(C)c(Cl)c2)nc(N2CCOCC2)n1`, the “growth rescue (activation)” value was inactive: 18.5%. `O=C(Cc1c(F)cccc1Cl)Nc1ccc(S(=O)(=O)NCC2CCCO2)cc1` (centres undefined): the “growth rescue (activation)” value was inactive: -9.16%. The same measure for `CC(C)(C)CC(=O)N[C@@H](Cc1ccccc1)c1nc2ccccc2[nH]1`: inactive: 1.39%. `CCn1c(SCC(=O)N2CCN(c3ccc(F)cc3)CC2)nc2ccccc2c1=O`: the “growth rescue (activation)” value was inactive: -4.5%. On to `COC(=O)Cn1c(=O)c2c(nc3n2CCCN3CCc2ccccc2)n(C)c1=O`, for which the “growth rescue (activation)” value is inactive: 2.2%. For the compound `Cc1ccccc1-c1ocnc1C(=O)Nc1ccccc1NC(=O)c1ccccn1`, the “growth rescue (activation)” value is inactive: 7.37%. `O=C(Nc1ccc(S(=O)(=O)Nc2nccs2)cc1)C1CC(=O)N(c2ccccc2)C1` (centres undefined): the “growth rescue (activation)” value was inactive: 1.47%. `Clc1ccc(N2CCN(c3nc4nonc4nc3N3CCSCC3)CC2)nc1`: the “growth rescue (activation)” value is inactive: -1.89%. For `O=C1CCC(C(=O)OCC(=O)c2c[nH]c3ccccc23)=NN1`, the “growth rescue (activation)” value is inactive: 0.727%. As to `Cc1occc1C(=O)Nc1ccc(S(N)(=O)=O)cc1`, the “growth rescue (activation)” value was inactive: -9.46%. For `O=C1COc2ccc(C(=O)COC(=O)c3cnc(Cl)c(Cl)c3)cc2N1`, the “growth rescue (activation)” value was inactive: 7.82%.

On to `CCn1c(=S)[nH]c2cc(S(=O)(=O)N3CCOCC3)ccc21`, for which the “growth rescue (activation)” value was inactive: 7.94%. The value for `CN(CCc1ccccn1)C(=O)CCC1CCCN(Cc2ccccc2OC(F)F)C1` (centres undefined) was inactive: 1.51%. The same measure for `CC(=O)C1=C(O)C(=O)OC1c1ccc(Cl)cc1` (centres undefined): inactive: -24.9%. As for `Cc1ccc(C)c(S(=O)(=O)NC(Cc2c[nH]c3ccccc23)C(=O)O)c1` (centres undefined), the “growth rescue (activation)” value was inactive: -11.8%. Take `CNC(=O)CO/N=C/c1ccc(N(C)C)cc1`: the “growth rescue (activation)” value is inactive: 4.1%. The value for `O=C(c1cccs1)N1CCCC(c2nc3c(nnn3Cc3cccc(Cl)c3)c(=O)[nH]2)C1` (centres undefined) was inactive: 17.5%; that for `COc1ccc(N(CC(=O)NCCc2ccccc2)C(=O)c2csnn2)cc1` was inactive: -1.69%; that for `CCNc1nc(NCC)nc(OCCNS(=O)(=O)c2ccccc2)n1` was inactive: 28.1%.

For `Cn1nc(-c2ccc(N3CCOCC3)c(NS(=O)(=O)c3ccc(Cl)cc3)c2)c2ccccc2c1=O`, the “growth rescue (activation)” value was inactive: 11.4%. With `c1ccc(OCCOc2cccc3cccnc23)cc1`, the “growth rescue (activation)” value was inactive: 15.8%. With `O=C(CCC(=O)c1cccs1)NNC(=O)c1cc(Cl)ccc1Cl`, the “growth rescue (activation)” value is inactive: 15%.

Consider `O=[N+]([O-])c1cccc(-c2nc3ccc([N+](=O)[O-])cc3[nH]2)c1`, for which the “growth rescue (activation)” value is inactive: 0.527%. Consider `CCCOc1ccc(-c2nc[nH]c2[N+](=O)[O-])cc1`, for which the “growth rescue (activation)” value is inactive: 7.62%. The value for `CC(C)C(=O)N1CCC1(C)C(=O)Nc1ccccc1OC(F)F` (centres undefined) was inactive: 4.09%; that for `CCCCCN(C(=O)NC(=O)Nc1ccccc1C)S(=O)(=O)c1ccccc1` was inactive: 8.48%. The same measure for `COc1ccc(C(=O)N2CCC(C)(C(=O)NS(=O)(=O)C3CC3)C2)cc1F` (centres undefined): inactive: -16.3%; for `Cc1cc(C)nc(N/N=C/c2c[nH]c3ccccc23)n1`: inactive: 11.9%; for `CN1CCCC(C)(C(=O)Nc2cccc(Oc3ccccc3)c2)C1` (centres undefined): inactive: -4.37%. Regarding `COc1ccc(C2=NN(C(=O)CCC(=O)O)C(c3ccc(Br)cc3)C2)cc1` (centres undefined), the “growth rescue (activation)” value is inactive: 3.59%. On to `Cc1cccc(C)c1NC(=O)CCS(=O)(=O)c1cccc2nonc12`, for which the “growth rescue (activation)” value was inactive: 10.1%.

For the compound `O=C(CCCN1C(=O)/C(=C/c2cccs2)SC1=S)NNC(=O)c1ccc(F)cc1`, the “growth rescue (activation)” value was inactive: 11.6%. For the compound `Cc1ccc(N/C=C(\C#N)S(=O)(=O)c2ccccc2)cc1`, the “growth rescue (activation)” value was inactive: 2.84%. The value for `Cc1cc(=O)oc2cc(OCC(=O)OCC(=O)N(C)C3CCS(=O)(=O)C3)ccc12` (centres undefined) was inactive: 0.908%; that for `CCN1CCN(c2nc(-c3ccccc3)nc3ccccc23)CC1` was inactive: 14.8%. As for `N#Cc1c(SCC(=O)Nc2ccccc2)nsc1SCC(=O)Nc1ccccc1`, the “growth rescue (activation)” value was inactive: 13.4%. The value for `COc1cccc(NC(=O)N2CCN(C(=O)c3nsc4ccccc34)CC2)c1` was inactive: 22.5%.

Turning to `Cc1[nH]c(=O)c(C#N)c(C)c1CCC(=O)N(C)CC(=O)Nc1ccc(Cl)c(Cl)c1`, the “growth rescue (activation)” value was inactive: 4.99%. `C#Cc1ccc(NC(=O)C2(C)CCN2C(=O)c2cc(C)n(C)n2)cc1` (centres undefined): the “growth rescue (activation)” value was inactive: 16%. For `CCN(CC)C(=O)CSc1nc2ccsc2c(=O)n1CCCC(=O)NCCc1ccc(S(N)(=O)=O)cc1`, the “growth rescue (activation)” value is inactive: -4.66%. Consider `CC1(C(=O)NCCc2ccccc2)Cc2c(-c3ccc(C(N)=O)cc3)ccnc2O1` (centres undefined), for which the “growth rescue (activation)” value is inactive: 2.92%. Turning to `O=c1[nH]ncn1-c1ccccc1`, the “growth rescue (activation)” value was inactive: 7.28%. On to `OC(c1ccc(Cl)c(F)c1)c1ncc(-c2ccccc2C(F)(F)F)[nH]1` (centres undefined), for which the “growth rescue (activation)” value was inactive: 12.4%. Regarding `CCCCOc1ccc(/C=C/C(=O)Nc2ccc([N+](=O)[O-])cc2C)cc1`, the “growth rescue (activation)” value is inactive: 34.6%.

Take `COc1cc(NC(=S)NCCCN2CCOCC2)c(OC)cc1Cl`: the “growth rescue (activation)” value is inactive: -0.636%. As for `Cn1c(=O)n(C)c2cc([N+](=O)[O-])c(N3CCN(C(=O)c4ccccc4Br)CC3)cc21`, the “growth rescue (activation)” value is inactive: 7.33%. Consider `CCC1(CC)NC(=O)N(CC(=O)Nc2ccc(OCc3ccccc3)cc2)C1=O`, for which the “growth rescue (activation)” value is inactive: 9.56%. Regarding `COc1ccc(-c2nc(C#N)c(NCc3ccc(F)cc3)o2)cc1OC`, the “growth rescue (activation)” value is inactive: -0.253%.

For the compound `Cc1ccc2cccc(OCc3cccc([N+](=O)[O-])c3)c2n1`, the “growth rescue (activation)” value was inactive: 19.3%.

For `CCOc1ccc(NC(=O)CCn2ccnc2)cc1`, the “growth rescue (activation)” value was inactive: 1.65%.

Take `S=c1[nH]nc(COc2ccccc2)n1/N=C/c1ccco1`: the “growth rescue (activation)” value was inactive: 25.6%. As to `Cc1cc(=O)[nH]c(NCCO)n1`, the “growth rescue (activation)” value is inactive: 1.72%. Turning to `O=C(O)c1ccccc1/C=N/NC(=S)NCc1ccccc1`, the “growth rescue (activation)” value was inactive: 3.19%. In the case of `CCN1CCC(C(=O)NC(c2ccc(F)cc2)c2ncccc2C)CC1` (centres undefined), the “growth rescue (activation)” value is inactive: -3.33%.

On to `COCCCNC(=O)CC1C(=O)N(Cc2ccccc2)C(C)c2nc3ccccc3n21` (centres undefined), for which the “growth rescue (activation)” value is inactive: 2.47%. With `CCN1CCN(c2nc(-c3ccc(F)cc3)cc(=O)[nH]2)CC1`, the “growth rescue (activation)” value is inactive: 12.5%.

Take `O=c1[nH]c(Cc2cccs2)nc2scc(-c3ccc(Cl)cc3)c12`: the “growth rescue (activation)” value was inactive: 36.7%. Consider `O=C(Nc1ccccc1)Nc1nc(-c2ccc(F)cc2)cs1`, for which the “growth rescue (activation)” value was inactive: 2.93%.

In the case of `COc1ccc(NC(=O)c2ccccc2NC(=O)CSc2ccccc2)cc1`, the “growth rescue (activation)” value is inactive: 1.24%.

As for `CN(C(=O)COC(=O)c1cc(F)c(F)cc1Cl)c1ccccc1`, the “growth rescue (activation)” value is inactive: 19.5%. In the case of `Cc1c(C(=O)OCC(=O)N2CCCC2)cccc1[N+](=O)[O-]`, the “growth rescue (activation)” value was inactive: -5.06%. The value for `COc1cc(CNC(=O)c2cc(-c3ccc(F)cc3C)n[nH]2)cc(OC)c1` was inactive: 1.61%; that for `O=C(COC(=O)/C=C/c1ccc(F)cc1)NC1CCS(=O)(=O)C1` (centres undefined) was inactive: 16.2%. As to `O=C1CC(c2ccco2)CC(O)=C1C=Nc1ccccc1-c1ccccc1` (centres undefined), the “growth rescue (activation)” value was inactive: 9.67%. As to `OC(CN1CCCC(C(F)(F)F)C1)c1ccccc1` (centres undefined), the “growth rescue (activation)” value is inactive: -3.17%.

For `O=C(COC(=O)CNC(=O)c1ccccc1F)NC1CC1`, the “growth rescue (activation)” value is inactive: -19.4%. Take `CN1CCN(S(=O)(=O)c2ccc(NC(=O)c3ccccc3Cl)cc2)CC1`: the “growth rescue (activation)” value is inactive: 0.926%. Regarding `CC(=O)Nc1ccc(S(=O)(=O)Nc2nc3ccccc3nc2Nc2ccc(C(=O)O)c(O)c2)cc1`, the “growth rescue (activation)” value was inactive: 2.7%.

Values taken from PubChem BioAssay AID1347073 (National Center for Advancing Translational Sciences (NCATS), 2019).
